# Source: the supplement of paper PMC11417369
# The other results are listed elsewhere or left out.
# Tested on: PfAP2-HC AP2 domain (GST-tagged)
# Test: gcPBM binding intensity (ln(normalized median fluorescence intensity)); higher = stronger DNA binding
# Summary of the method: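 Binding of GST-tagged P. falciparum DNA-binding domains, expressed in E. coli and used at about 25 μg on average, was carried out for 1 h in 1× PBS containing 1% milk, 0.2 mg/ml BSA, 0.5% salmon testes DNA and 0.03% Triton X-100. The target was an Agilent 4 × 180k array of primer-extended double-stranded 36-bp intergenic genomic probes plus negative controls, read with Alexa488 anti-GST antibody at 488 nm. Binding intensity is the highest Masliner-normalised natural-log median intensity across replicate spots of either probe orientation.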
row,Sequence,gcPBM binding intensity (ln)
1,ATTTAATTCTTTTGTTATAAAATTTTAGTATATATA [CACACA_negctrl_site1649],9.66
2,GCTAAAAGTATATGCACACACATATATATGCACATA [CACACA_site1635],10.2
3,TTTTGTACTTCATGCGTGCACAGAAATATATTATAT,9.69
4,GAATAAGATAGATATACACACCATTATAAATATAAA [CACACA_site5392],9.81
5,TAAATACTAATATGTACACACATATAGATATAGATT [CACACA_site7247],9.8
6,TTAAATAGATAAACTAAACACACAAAAAAAAAAAAA [CACACA_site8308],9.78
7,TGTGCAAGATTTTTCTGTACATATATATAAATATAT [XGTACX_site1796],9.42
8,AAATATTCTTGTTTAATACACACTGTAGTATTATAT [CACACA_site433],9.83
9,CTATTATAATATTTTACACACCATGTAAAATATATA [CACACA_site3206],9.61
10,ATCATTCTTCATTTGTCACACATGATAAAAATATAT [CACACA_site4953],9.7
11,CTATTTTGGATGTGTACACATATATATATTTATATT [CACACA_site5706],9.9
12,TTTTTTAAGTAATGAAATGATTTTCTTATAGAATAA [GTGCAC_negctrl_site395],9.15
13,CATTAACATTTTATTACACACAATAATTTATAAGTA [CACACA_site4083],9.6
14,ATTTATATTTGTATTTGTACTTATATTTATATTTAT [XGTACX_site1540],10.1
15,GCTTTTGTCATGTGCACACACGTATATATTATATAT [CACACA_site6146],10.9
16,AAAAAGGTTAAGGTAGTGCATAATAAAGAATATTAA,9.75
17,TATGTGCCAAAACACACACACATATATATATATATA [CACACA_site469],10
18,TAGGCCTTAAATCGTGTGCACTTTTTTTTTTTTTTT,9.77
19,CAAATTATTATTTAAGCACACATGTTTATTTTTTTT [CACACA_site2672],9.8
20,TTTTTTTTTTTTTTTTTTGGTGAGAGAAGAAAATTC [CACACA_negctrl_site950],8.82
21,AAATATATCAATATATATATATATATATATATATAT [XGTACX_negctrl_site544],9.42
22,TTTTGTACAAAAATAATGCACACTATATCAAGTTTT [CACACA_site3595],9.68
23,ATATAAAAAGGAAAAAGTACAAAAAAATGTTTGTGA [XGTACX_site8552],9.64

row,Sequence,gcPBM binding intensity (ln)
1,AAGAAAATATATTCACATGAAGAATTAAAATAAAAC [TGCATGCA_negctrl_site119],9.76
2,ATTTATTTATATAATACACACAAATATCTTAATTAA [CACACA_site3993],9.51
3,TGGATATAAAACAACGTGCACTTGGTTGATTTTAAA [GTGCAC_site9900],9.59
4,TATGGTAAATACAACACACACACATATGTATTTATA [CACACA_site4666],10.3
5,AAAAAAAAAAAAAATTGTACATAATAAAAATATGGA [XGTACX_site3189],9.47
6,TGTTTATTCTTTAAATATTATTCAAATACTACAAGT [CACACA_negctrl_site746],9.41
7,CACAGACACGGACACACACACACACCCATATATATA [CACACA_site4354],11.3
8,ATACAAGAATTAAACACACACAAAATATAAATTCTT [CACACA_site3005],10.1
9,AGCAACCTGAAAAAATTACTCTTTCTTAAACAAATT [XGTACX_negctrl_site266],9.37
10,ACCTGTAAAAATGTTTATATATATATATATATATAT [CACACA_negctrl_site1500],9.95
11,TTAAGGATTAAGGTGTGTACATATAAATATTATATA [XGTACX_site7532],9.68
12,AATATTAAATGAAAAAGTACAAACAGTCCTATATTA [XGTACX_site1926],9.63
13,ATTTATATAAAGAATGTACACACAGAAATGCACCCA [CACACA_site8715],10
14,CGTATGCACAAATTATGTACTTATATATATATATAT [XGTACX_site2348],9.69
15,TAAATATATATATGTGTGCACTTCTTCATTTTAATA [GTGCAC_site9537],9.89
16,AAAAAAAAAAAACATACACACAAATAAATACATACA [CACACA_site6073],10.1
17,CGGCACATTATATATACACACATATAAATAAATACA [CACACA_site4477],9.8
18,TATATATATAAGTGCACACTGAACCAAGAAAATTAT [CACACA_site3008],10
19,GGATTGATAAGTGGTACACACATATAGATTATAGAT [CACACA_site7367],9.93
20,CCATCTAAACACAACTCGAGTTGGATGTGTGAACTT [XGTACX_negctrl_site83],9.85
21,ATATATATATATATATGTACATATTTCTCCATTTTT [XGTACX_site2869],9.62
22,CATATTTTTATAAATTGTACGTATATTATATATATA [XGTACX_site1816],9.58
23,AAACCGTGGGAGCACACACACACACCGACACATATA [CACACA_site4338],10.4

row,Sequence,gcPBM binding intensity (ln)
1,GTTTTTTATAATTGTAGTACAAGAAGATATTTTTAT [XGTACX_site5443],9.49
2,TGCAATTGTAAAGGCGCACACATATATATATATATA [CACACA_site4894],10.7
3,ATATATCAATATAAAAGTACAAACAAAAAATAATCA [XGTACX_site7559],9.89
4,GATATATACTCCATCACACACCAAAAAGAAAAAAGA [CACACA_site7242],9.93
5,ATCAAAAGAAAACACACACACATACAGATATATATA [CACACA_site5974],11.2
6,TCCATTTATAAATTAGCATGCAATCTATGTCTGATA [TGCATGCA_site1045],9.41
7,AATTAATGGGTACATACACACATATATACCTACATA [CACACA_site4572],10
8,CATATAAAAAATATGGTGCAGTTTTTTTTTTTTTTT,9.61
9,TATATATATAATGTTTGTACATATTAAATATATATG [XGTACX_site407],9.44
10,TAAATATTTTTATGGGTGCGTTCTTTAGCGCAATTT,9.38
11,TTTTGCAATAATGTTGCACACTAAATAGTCATATAT [CACACA_site7977],9.73
12,TTTATATTGATATATACACACATATACATCCTATTT [CACACA_site7442],10.1
13,ATTATTGTTGTTCATGTACACACTATAATAAAAGCA [CACACA_site4168],9.68
14,ATTAATTATTTCAATGCATGTGAACACTATATATAA [TGCATGCA_site600],9.7
15,AAAAAAAGTTGATACTGTACTCGTGCATTATGAATA [XGTACX_site5558],9.87
16,CTTATTAAAATTATTTGTACACAATATGTAAAAGTA [XGTACX_site7237],9.44
17,TAATTAAAATTATCTACACACCTTTATAAATATATA [CACACA_site3928],9.6
18,AGGTATTTTCTTGTGACACACATATATATATATATT [CACACA_site2220],10.1
19,TTGTATATTATATGTACACACAATAAGTTAATATAA [CACACA_site909],9.75
20,TTCCTTTGTCCTAACTGTACTCAAATTTATTAGTGG [XGTACX_site226],9.59
21,ATAATATATTTTTGAACACACAATATAGATTTATAT [CACACA_site7857],9.59
22,TATTCGAAAATTATTCAAATTATCTAACATATTATT [TGCATGCA_negctrl_site70],9.19
23,AAAAATAAAATAATATGTACATATATAATATATATA [XGTACX_site4786],9.82

row,Sequence,gcPBM binding intensity (ln)
1,TAATTTTTTAGACACACACACATATAAATATAAATA [CACACA_site6195],10.8
2,AATTGGAAACAACCAAAAAAATTAAAGTTGTATCCT [CACACA_negctrl_site565],9.42
3,TAAATGAAAACCATTAGTACTTATACTGATAAATGT [XGTACX_site763],9.64
4,TATATCTTAATATACACACACACATATATATATATA [CACACA_site4968],10
5,TATATAAATATATATACACACAAAAAAAAAAAAAAA [CACACA_site1406],9.68
6,TAAATACAAAAATGTACACACATATATATATTTTTA [CACACA_site3503],9.81
7,TAAATTTTAATATGCACACAAAATGTTATATTAAAA [CACACA_site4366],9.58
8,CGGCACATTATATATACACACATATAAATATATACA [CACACA_site8086],9.72
9,AATAAAATATACTATTGTACATATGGAACTACTTGA [XGTACX_site8928],9.71
10,TTGTTTTTAGTTTATACACACCATATTAAAATAATG [CACACA_site5675],9.74
11,ATTTATTATATATAGTGTACGTTCTTAATTATAATT [XGTACX_site7480],9.69
12,TAAAATATATTGCCAGTGCATAATATATGTAATTAT,9.63
13,TTTTTTAAATATTAAAAATGGGATCTTATAACATAT [GTGCAC_negctrl_site666],9.28
14,TGTATAAACCCACGTACACACACTAAGTATATCCAA [CACACA_site1605],10.3
15,AACTAATAAAAAAAAAAAACATTAAACAGGACAAAT [XGTACX_negctrl_site287],9.79
16,TAAACAAATAAATAAACACACAATATAGGTATATAT [CACACA_site7739],9.98
17,TTATTTTTAACGTACGCACACATATAAATATATTTA [CACACA_site1976],9.82
18,TTGTATTACATAAATGTTCTTTATTATTTGATAAAA [CACACA_negctrl_site903],9.35
19,TATATAATATATTAATGTACTTAAAATATATTCTAT [XGTACX_site1235],9.57
20,GTGTAGTTAAAAAAAAGTACAGATTTTTTTTTTTTT [XGTACX_site849],9.44
